We go through 16 molecules from patent US6475985B1, “Nucleosides with antiviral and anticancer activity” (priority 1998, dated 2002).

For data set [1], the system named is MCF-7 cells. In words: Test E: growth inhibitory activity in MCF-7 cells in culture. It counts as cell-based. The settings on record: 48 hours, trypan-blue exclusion. As for the experimental part: Representative compounds of the invention were evaluated for growth inhibitory activity in MCF-7 cells in culture. […] Typically, 24-well and 6-well plates were used to culture 25,000-100,000 and 200,000-500,000 cells, respectively.

The test system of data set [2] is MCF-7 breast cancer cells. In words: Test G: activity against MCF-7 breast cancer cells. It counts as cell-based. As for the experimental part: (§1) The activity of representative compounds of formula VII against MCF-7 breast cancer cells and CEM T-cell leukemia cells were determined using a procedure similar to that described by C. R. Wagner, et al. Cancer Research, 1997, 57, 2341-2345.

Data set [3] relates to CEM T-cell leukemia cells. As to the kind of experiment: Test G: activity against CEM T-cell leukemia cells. The note with it: T-cell. It counts as cell-based. As for the experimental part: as §1
Data set [4] has as its system HIV (antiviral activity in PBMC's). As to the kind of experiment: Test B: antiviral activity in PBMC's. In kind it is cell-based. From the text:
The antiviral properties of compounds of the invention can also be determined in PBMCs using a procedure similar to that described by E. I. McIntee, et al. J. Med. Chem., 1997, 40, 3323-3331.

The test system of data set [5] is MCF-7 cells.
A short description of a further data set: Log P. It counts as physicochemical.
In data set [6] the test system is MCF-7 cells. As to the kind of experiment: Test C: cytotoxicity in MCF-7 breast cancer cells. The note with it: read-out: CC50 MCF-7 cells; Table 3.
The mark [7] stands for this setting: Donor 1, read-out: IC50 PBMC's Donor 1.
[8] abbreviates: Donor 2, read-out: IC50 PBMC's Donor 2.

Where two headings read alike, the source gives them in different places. A value given as a limit tells only on which side of the number the result lay.

One may read the CC50 as the concentration that lowers cell viability or growth by half. What is called IC50 is the concentration that gives 50% inhibition. As a reminder, the Log P is a log measure of how a compound divides between an organic and an aqueous phase. Lower therefore signals a more hydrophilic compound.

For `COC(=O)[C@H](C)NP(=O)(O)OC[C@H]1O[C@@H](n2cc(C)c(=O)[nH]c2=O)C[C@@H]1N=[N+]=[N-]` [Compound 19, 3′-Azido-3′-deoxythymidine-5′-methoxy-L-alaninylphosphoramidate], the CC50 in the data set on MCF-7 cells [1] stood at 6000 nM.

The molecule `COC(=O)[C@@H](Cc1ccccc1)NP(=O)(O)OC[C@H]1O[C@@H](n2cc(F)c(=O)[nH]c2=O)C[C@@H]1O` [Compound 39, 5-fluoro-2′deoxy-5′-uridyl N-((D)-1-carbomethoxy-2-phenylethyl)phosphoramidate] had a CC50 in data set [2] of over 100000 nM.

As for “3′-Azido-3′-deoxythymidine-5′-methoxy-L-leucinylphosphoramidate [Compound 21]”, the CC50 in the data set with MCF-7 cells [1] was over 100000 nM.

As to `COC(=O)[C@H](Cc1c[nH]c2ccccc12)NP(=O)(O)OC[C@H]1O[C@@H](n2cc(C)c(=O)[nH]c2=O)C[C@@H]1N=[N+]=[N-]` [Compound 9, 3-Azido-3-deoxythymidine-5-methoxy-L-trytophanyl-phosphoramidate], in the data set on MCF-7 cells [1], half-maximal cytotoxicity (CC50) was put at 30 nM.

For `O=c1[nH]cc(F)c(=O)[nH]1` [FU, 5-fluorouracil, reference compound], the CC50 in data set [3] amounted to 3700 nM; in data set [2] (Homo sapiens, MCF7) it was 1600 nM.

In the case of `COC(=O)[C@@H](Cc1ccccc1)NP(=O)(O)OCC1OC(n2cc(C)c(=O)[nH]c2=O)CC1N=[N+]=[N-]` (stereo partly drawn) [Compound 12, 3-Azido-3-deoxythymidine-5-methoxy-D-phenylalaninylphosphoramidate], in the data set with MCF-7 cells [1], the CC50 is over 100000 nM. Further, the IC50 in data set [4] (setting [7]) is 50 nM; in data set [4] (setting [8]) it was 85 nM.

In the case of `CNC(=O)[C@H](Cc1ccccc1)NP(=O)(O)OC[C@H]1O[C@@H](n2cc(C)c(=O)[nH]c2=O)C[C@@H]1N=[N+]=[N-]` [Compound 27, 3′-Azido-3′-deoxythymidine-5′-methylamino-L-phenylalaninylphosphoramidate], in the data set with MCF-7 cells [1], the CC50 amounted to 1500 nM. In addition, the IC50 in data set [4] (setting [7]) stood at 180 nM; in data set [4] (setting [8]), 250 nM.

For the molecule `COC(=O)[C@@H](Cc1c[nH]c2ccccc12)NP(=O)(O)OC[C@H]1O[C@@H](n2cc(C)c(=O)[nH]c2=O)C[C@@H]1N=[N+]=[N-]` [Compound 10, 3-Azido-3-deoxythymidine-5-methoxy-D-trytophanyl-phosphoramidate], the CC50 in the data set on MCF-7 cells [1] and in the data set with MCF-7 cells [5] was over 100000 nM in each case.

Molecule `CNC(=O)[C@H](Cc1c[nH]c2ccccc12)NP(=O)(O)OC[C@H]1O[C@@H](n2cc(C)c(=O)[nH]c2=O)C[C@@H]1N=[N+]=[N-]` [Compound 30, 3′-Azido-3′-deoxythymidine-5′-methylamino-L-tryptophanylphosphoramidate] displayed a CC50 in the data set on MCF-7 cells [1] of 25 nM. Also, the IC50 amounted to 700 nM in data set [4] (setting [7]) and 1800 nM in data set [4] (setting [8]).

Molecule `CNC(=O)[C@@H](Cc1c[nH]c2ccccc12)NP(=O)(O)OC[C@H]1O[C@@H](n2cc(C)c(=O)[nH]c2=O)C[C@@H]1N=[N+]=[N-]` [Compound 31, 3′-Azido-3′-deoxythymidine-5′-methylamino-D-tryptophanylphosphoramidate] yielded a CC50 in the data set on MCF-7 cells [1] of over 100000 nM. The values for the IC50 in data set [4] (setting [7]) and in data set [4] (setting [8]) were 400 nM and 180 nM, respectively.

In the data set with MCF-7 cells [1], `COC(=O)[C@@H](NP(=O)(O)OC[C@H]1O[C@@H](n2cc(C)c(=O)[nH]c2=O)C[C@@H]1N=[N+]=[N-])C(C)C` [Compound 20, 3′-Azido-3′-deoxythymidine-5′-methoxy-L-valinylphosphoramidate] had a CC50 of 7500 nM.

In turn, `Cc1cn([C@H]2C[C@H](N=[N+]=[N-])[C@@H](COP(=O)(O)N[C@@H](Cc3c[nH]c4ccccc34)C(=O)NC3CCCCC3)O2)c(=O)[nH]c1=O` [Compound 35, 3′-Azido-3′-deoxythymidine-5′-cyclohexylamino-L-tryptophanylphosphoramidate] displayed a CC50 with MCF-7 cells [1] of 7500 nM.

`Cc1cn([C@H]2C[C@H](N=[N+]=[N-])[C@@H](CO)O2)c(=O)[nH]c1=O` [AZT, reference compound] came in with a CC50 with MCF-7 cells [1] of 8 nM. For the same molecule, in “Log P”, the “Log P” value came out at 0.1244. Besides, the half-maximal inhibitory concentration (IC50) worked out at 3 nM in data set [4] (setting [7]) and 10 nM in data set [4] (setting [8]).

For `COC(=O)[C@H](Cc1ccccc1)NP(=O)(O)OC[C@H]1O[C@@H](n2cc(C)c(=O)[nH]c2=O)C[C@@H]1N=[N+]=[N-]` [Compound 11, 3-Azido-3-deoxythymidine-5-methoxy-L-phenylalaninylphosphoramidate], the CC50 in the data set with MCF-7 cells [1] and in the data set on MCF-7 cells [6] was 400 nM each time. Moreover, the “Log P” value in the data set “Log P” is −2.4209.

Consider `COC(=O)CNP(=O)(O)OC[C@H]1O[C@@H](n2cc(C)c(=O)[nH]c2=O)C[C@@H]1N=[N+]=[N-]` [Compound 17, 3′-Azido-3′-deoxythymidine-5′-methoxyglycinyl phosphoramidate], for which the half-maximal cytotoxic concentration (CC50) in the data set on MCF-7 cells [1] is over 100000 nM.

In turn, `CNC(=O)[C@@H](Cc1ccccc1)NP(=O)(O)OC[C@H]1O[C@@H](n2cc(C)c(=O)[nH]c2=O)C[C@@H]1N=[N+]=[N-]` [Compound 28, 3′-Azido-3′-deoxythymidine-5′-methylamino-D-phenylalaninylphosphoramidate] had a CC50 in the data set with MCF-7 cells [1] of over 100000 nM. The values for the IC50 in data set [4] (setting [7]) and in data set [4] (setting [8]) were 900 nM and 100 nM, respectively.
